“And” between values parts separate entries of the source, which are not always exact repeats. Equal entries are not always repeated. Where two headings read alike, the source gives them in different places.
Legend:
[1] = test system: cultured bloodstream T. brucei (strain 427); test: microbe, parasite or virus in culture; settings: Trypanosoma brucei; for IC50: read-out: T. brucei ED50, ED50 ± SD (n = 4)
[2] = test system: cultured bloodstream T. brucei (strain 427); settings: for Selectivity index: T. brucei ED50 versus HeLa ED50
[3] = read-out: T. brucei Alamar Blue
[4] = read-out: T. brucei Alamar Blue (% survival)

Compound: O=C(O)c1ccccc1-n1cccc1 [compound 513, 2-(1H-pyrrol-1-yl)benzoic acid]
- viability at 500 µM [1, 3]: 104 ± 9.6%
- viability at 500 µM [1, 4]: 104 ± 9.6%
- trypanocidal or general cytotoxicity activity ([2]; at 0.5 mM): no trypanocidal or general cytotoxicity activity

Compound: NCc1cccc(-n2cccc2)c1 [compound 364, 3‐(1H‐pyrrol‐1‐yl)benzylamine]
- viability at 500 µM [1, 3]: 23.2 ± 4.2%
- IC50 [1]: 63.2 ± 1.7 µM
- Selectivity index [2]: 0.6

Compound: Cn1c(CN)nc2ccccc21 [compound 281, (1‐methyl‐1H‐benzimidazol‐2‐yl)methylamine]
- viability at 500 µM [1, 3]: 27.3 ± 7.7%
- IC50 [1]: 44.7 ± 1.8 µM
- Selectivity index [2]: 14.7

Compound: Cc1cc2c(N)cccc2nn1 [compound 261, 3-methylcinnolin-5-amine]
- viability at 500 µM [1, 3]: 21.7 ± 8.5%
- viability at 500 µM [1, 4]: 21.7 ± 8.5%
- IC50 [1]: 148 ± 8 µM

Compound: OCc1cc2ccccc2o1 [compound 167, 1‐benzofuran‐2‐ylmethanol]
- viability at 500 µM [1, 3]: 89.8 ± 4.7%

Compound: NCc1ccc2occc2c1 [compound 165, 1‐benzofuran‐5‐ylmethylamine]
- viability at 500 µM [1, 3]: 81.5 ± 6.3%

Compound: O=C(O)Cc1ccc(F)cc1 [compound 219, 2‐(4‐fluorophenyl)acetic acid]
- viability at 500 µM [1, 3]: 101 ± 18%

Compound: Cc1csc(N)c1C(N)=O [compound 239, 2-amino-4-methylthiophene-3-carboxamide]
- viability at 500 µM [1, 3]: 22.9 ± 7%
- viability at 500 µM [1, 4]: 22.9 ± 7%
- IC50 [1]: 63 ± 2.5 µM
- T. brucei ED50 ([2]; ED50 ± SD (n = 4)): 63.0 ± 2.5 µM

Compound: CC(=O)N1CCC(C#N)CC1 [compound 207, 1‐acetylpiperidine‐4‐carbonitrile]
- viability at 500 µM [1, 3]: 96.5 ± 13.9%

Compound: CN(C(N)=S)c1ccccc1 [compound 325, N‐methyl‐N‐phenylthiourea]
- viability at 500 µM [1, 3]: 24 ± 5.4%
- IC50 [1]: 82.2 ± 4.6 µM
- Selectivity index [2]: 5

Compound: Cn1ccc2cc(N)ccc21 [compound 158, 1‐methyl‐1H‐indol‐5‐amine]
- viability at 500 µM [1, 3]: 42.7 ± 9.7%

Compound: Nc1ccc(Cl)c(F)c1 [269b]
- IC50 [1]: 150 ± 13 µM
- Selectivity index [2]: 9.3

Compound: OCc1ccc2ccccc2n1 [compound 256, 2-quinolinylmethanol]
- viability at 500 µM [1, 3]: 21.7 ± 6%
- viability at 500 µM [1, 4]: 21.7 ± 6%
- IC50 [1]: 40.1 ± 1.2 µM
- Selectivity index [2]: ~ 21 and 20.8

Compound: ON=C1CCCCCN1 [compound 87, azepan‐2‐one oxime]
- viability at 500 µM [1, 3]: 56.3 ± 9.9%

Compound: Cc1ccc(CO)cc1C [compound 119, (3,4‐dimethylphenyl)methanol]
- viability at 500 µM [1, 3]: 103 ± 2.8%

Compound: Clc1ccc2nonc2c1 [compound 225, 5‐chloro‐2,1,3‐benzoxadiazole]
- viability at 500 µM [1, 3]: 95 ± 12.2%

Compound: OCc1cccc2[nH]ccc12 [compound 163, 1H-indol-4-ylmethanol]
- viability at 500 µM [1, 3]: 34.8 ± 0.8%
- viability at 500 µM [1, 4]: 34.8 ± 0.8%

Compound: Cc1occc1C(=O)O [compound 75, 2-methyl-3-furoic acid]
- viability at 500 µM [1, 3]: 62.2 ± 10.6%
- viability at 500 µM [1, 4]: 62.2 ± 10.6%

Compound: Cc1cccc2cc[nH]c12 [compound 95, 7‐methyl‐1H‐indole]
- viability at 500 µM [1, 3]: 24.1 ± 5.2%

Compound: CC(=O)Nc1ccccc1F [compound 212, N1‐(2‐fluorophenyl)acetamide]
- viability at 500 µM [1, 3]: 97.3 ± 9.6%

Compound: N#CCCn1cccc1 [compound 50, 3‐(1H‐pyrrol‐1‐yl)propanenitrile]
- viability at 500 µM [1, 3]: 90.7 ± 10.3%

Compound: Nc1ccc(Cl)cc1N [269c]
- IC50 [1]: 21.9 ± 1.2 µM
- Selectivity index [2]: 10.2

Compound: c1cnc2c(n1)CCCC2 [compound 111, 5,6,7,8‐tetrahydroquinoxaline]
- viability at 500 µM [1, 3]: 110 ± 17.6%

Compound: Fc1cc2nc[nH]c2cc1Cl [269d]
- IC50 [1]: 331 ± 24 µM
- Selectivity index [2]: 1.6

Compound: O=C(O)c1sccc1-n1cccc1 [compound 577, 3-(1H-pyrrol-1-yl)thiophene-2-carboxylic acid]
- viability at 500 µM [1, 3]: 32.2 ± 4.1%
- viability at 500 µM [1, 4]: 32.2 ± 4.1%

Compound: CC(=O)c1cc[nH]c1 [compound 20, 1-(1H-pyrrol-3-yl)ethan-1-one]
- viability at 500 µM [1, 3]: 36.8 ± 9.7%
- viability at 500 µM [1, 4]: 36.8 ± 9.7%

Compound: Cn1nc(CO)c2ccccc21 [compound 286, (1‐methyl‐1H‐indazol‐3‐yl)methanol]
- viability at 500 µM [1, 3]: 65.3 ± 18%

Compound: OCc1c[nH]c2ccccc12 [compound 162, 1H-indol-3-ylmethanol]
- viability at 500 µM [1, 3]: 32.5 ± 5.9%
- viability at 500 µM [1, 4]: 32.5 ± 5.9%
- IC50 [1]: 31.3 ± 1.4 µM
- Selectivity index [2]: 3.3

Compound: CCCc1ccc(C(C)=O)cc1 [compound 288, 1‐(4‐propylphenyl)ethan‐1‐one]
- viability at 500 µM [1, 3]: 33.5 ± 0.5%

Compound: c1cncc(-n2cccc2)c1 [compound 151, 3‐(1H‐pyrrol‐1‐yl)pyridine]
- viability at 500 µM [1, 3]: 56.6 ± 19.2%

Compound: Cc1cc(CN)no1 [compound 33, (5‐methyl‐3‐isoxazolyl)methylamine]
- viability at 500 µM [1, 3]: 75.7 ± 13.5%

Compound: O=C(O)c1ccoc1 [compound 28, 3-furoic acid]
- viability at 500 µM [1, 3]: 59.7 ± 5.5%
- viability at 500 µM [1, 4]: 59.7 ± 5.5%

Compound: COC(=O)c1ccccc1C#N [compound 274, methyl 2‐cyanobenzoate]
- viability at 500 µM [1, 3]: 91.2 ± 14.9%

Compound: NCc1ccc(-n2cccc2)cc1 [compound 365, 4‐(1H‐pyrrol‐1‐yl)benzylamine]
- viability at 500 µM [1, 3]: 22.3 ± 5.1%
- IC50 [1]: 49.4 ± 2.1 µM
- Selectivity index [2]: 1.5

Compound: Cc1ccc(O)c(C)n1 [compound 64, 2,6‐dimethylpyridin‐3‐ol]
- viability at 500 µM [1, 3]: 111 ± 6.3%

Compound: Cc1cc(C)n(C)n1 [compound 24, 1,3,5‐trimethyl‐1H‐pyrazole]
- viability at 500 µM [1, 3]: 114 ± 12.5%

Compound: Cn1ccc2ccc(CO)cc21 [compound 278, (1‐methyl‐1H‐indol‐6‐yl)methanol]
- viability at 500 µM [1, 3]: 28.8 ± 10.8%

Compound: COC(=O)c1ccsc1N [compound 242, methyl 2‐aminothiophene‐3‐carboxylate]
- viability at 500 µM [1, 3]: 74 ± 4.7%

Compound: COc1ccc(N)c(OC)c1 [compound 213, 2,4‐dimethoxyaniline]
- viability at 500 µM [1, 3]: 23.7 ± 5.8%
- IC50 [1]: 55.6 ± 1.3 µM
- Selectivity index [2]: 12.8

Compound: Nc1cc(F)c(Cl)cc1N [compound 269, 4-chloro-5-fluorobenzene-1,2-diamine]
- viability at 500 µM [1, 3]: 25.1 ± 10.1%
- IC50 [1]: < 40 µM
- Selectivity index [2]: ~ 21 and 21.4

Compound: CC(=O)c1cccc(F)c1 [compound 125, 1‐(3‐fluorophenyl)ethan‐1‐one]
- viability at 500 µM [1, 3]: 105 ± 17.2%

Compound: Cc1noc(C)c1C#N [compound 53, 3,5‐dimethyl‐4‐isoxazolecarbonitrile]
- viability at 500 µM [1, 3]: 85 ± 13.8%

Compound: Nc1ccccc1-n1ccnc1 [compound 262, 2‐(1H‐imidazol‐1‐yl)aniline]
- viability at 500 µM [1, 3]: 72.4 ± 20%

Compound: Cc1ccc(C(=O)O)c(N)c1 [compound 196, 2‐amino‐4‐methylbenzoic acid]
- viability at 500 µM [1, 3]: 87.4 ± 19.7%

Compound: COc1ncccc1N [compound 65, 2‐methoxypyridin‐3‐amine]
- viability at 500 µM [1, 3]: 40 ± 11.5%

Compound: NC(=O)c1cccs1 [compound 80, thiophene‐2‐carboxamide]
- viability at 500 µM [1, 3]: 99.6 ± 2.4%

Compound: OCC1CCNCC1 [compound 40, 4‐piperidylmethanol]
- viability at 500 µM [1, 3]: 72.2 ± 8.1%

Compound: O=C(O)c1ccccn1 [compound 58, 2‐pyridinecarboxylic acid]
- viability at 500 µM [1, 3]: 63 ± 15.4%

Compound: NCc1ccc(F)c(Cl)c1 [compound 264, 3‐chloro‐4‐fluorobenzylamine]
- viability at 500 µM [1, 3]: 29 ± 5.5%

Compound: NC1=CC=C2OCOCC2C1 (stereo not shown) [compound 195, 4,5‐dihydro‐1,3‐benzodioxine‐6‐amine]
- viability at 500 µM [1, 3]: 41.8 ± 8.8%

Compound: Cc1nnc(N)s1 [compound 39, 5‐methyl‐1,3,4‐thiadiazol‐2‐amine]
- viability at 500 µM [1, 3]: 103 ± 12%

Compound: Cc1cc(N)c(N)cc1Cl [compound 240, 4-chloro-5-methylbenzene-1,2-diamine]
- viability at 500 µM [1, 3]: 28.9 ± 7.8%
- IC50 [1]: 86.6 ± 4.8 µM
- Selectivity index [2]: 5.2

Compound: OCC1CCOCC1 [compound 43, tetrahydro‐2H‐pyran‐4‐ylmethanol]
- viability at 500 µM [1, 3]: 113 ± 18.4%

Compound: Cc1cc(C(N)=S)no1 [compound 140, 5‐methylisoxazole‐3‐carbothioamide]
- viability at 500 µM [1, 3]: 99.2 ± 19.8%

Compound: Nc1ccccc1N [269a, benzene-1,2-diamine]
- IC50 [1]: 35.2 ± 3 µM
- Selectivity index [2]: 0.9
